PubChem BioAssay AID1814 (Broad Institute, 2009)
The whole screen tested about 300,000 compounds, of which about 22,000 (7.3%) were called active. This list was built around the results that the source calls inconclusive (neither active nor inactive); the mix of calls is not that of the screen. Rule as the data show it: active = activity score below about -60%; inconclusive = mostly about -28% to -61%; inactive = positive scores.

experiment: Activators via SNCA 5'UTR binding, MLPCN (AID 1814); details: alpha-synuclein 5'UTR reporter, activators screen; hits give low values; tested at 7.5 µM

Row | Compound | activity score
1 | O=C(CSCc1ccc(F)cc1)N1CCOCC1 | inconclusive: -57.4%
2 | Nn1c(SCC(=O)Nc2nc3ccccc3s2)nncc1=O | inconclusive: -57.4%
3 | COc1ccc(CC(=O)NCc2ccc(-n3cccc3)cc2)cc1OC | inactive: 63.9%
4 | NC(=O)C1CC(=O)N(c2ccc(OCc3ccccc3Cl)cc2)C1 (centres undefined) | inconclusive: -57.6%
5 | Cc1ccccc1C(=O)N/N=C/c1ccc([N+](=O)[O-])s1 | inactive: 93.4%
6 | Cc1ccc(/C=C2\SC(=O)N(CCC(=O)N3CCN(C)CC3)C2=O)cc1 | inconclusive: -55.2%
7 | CCC(NC(=O)CCl)c1ccc(C)cc1 (centres undefined) | inconclusive: -56.8%
8 | CC(C)/C=C1\CC/C(=C\c2ccc(N(C)C)cc2)C1=O | inconclusive: -58%
9 | COc1ccc(C(=O)O/N=C(\N)c2ccccn2)cc1 | inactive: 60.6%
10 | Cc1nc2ccc(NC(=O)NC(=O)c3c(Cl)cccc3Cl)cc2o1 | inconclusive: -47.5%
11 | OCCNCCCCOc1ccc(OCc2ccccc2)cc1 | inconclusive: -54.6%
12 | CC(C)(C)c1ccc(-c2noc(CCC(=O)Nc3cccnc3)n2)cc1 | inactive: 76.9%
13 | Clc1cccc(-c2cc3nc4c(c(N5CCOCC5)n3n2)CCCC4)c1 | inconclusive: -43.1%
14 | CC(=O)Cn1nnc2sc(-c3ccccc3)cc2c1=O | active: -90.2%
15 | CCN(CC)CC(=O)Nc1ccc2c(c1)Nc1ccccc1CC2 | inconclusive: -56.8%
16 | CCN1/C(=C2\OC(=S)N(C)C2=O)Sc2ccccc21 | active: -129%
17 | CCn1c(C(=O)NCCCN2CCc3ccccc3C2)cc2sccc21 | inconclusive: -57.6%
18 | Cc1nc(C(C)N(C)Cc2nc(-c3ccc4c(c3)OCO4)no2)c(C)s1 (centres undefined) | inconclusive: -52.6%
19 | O=C1CCCC(O)=C1N=Nc1ccc2ncsc2c1 | inconclusive: -51.3%
20 | Cc1ccc(-c2cc(C(=O)N3CCN(c4ccc(F)cc4)CC3)c3ccccc3n2)o1 | active: -95.8%
21 | COc1ccc(/C=N/NC(N)=S)cc1OC(=O)c1cccc2ccccc12 | inconclusive: -52.4%
22 | O=C(Nc1ccc2c(c1)OCCO2)c1ccccn1 | inactive: 88%
23 | CC(C)n1cc(CN2CCCC(C(=O)Nc3cccc(-c4cc5ccccc5[nH]4)c3)C2)cn1 (centres undefined) | inactive: 58.2%
24 | CCc1ccc(S(=O)(=O)Nc2cc3c(cc2C)n(C)c(=O)n3C)cc1 | active: -91.8%

Row | Compound | activity score
25 | COc1ccc(-n2cc(-c3ccccc3)nc2SC)cc1 | active: -121%
26 | COc1cc(/C=C2\COC/C(=C\c3cc(OC)c(OC)c(OC)c3)C2=O)cc(OC)c1OC | inactive: 103%
27 | Cc1ccc(NN=Nc2nc3c([nH]2)c(=O)n(C)c(=O)n3C)cc1 | inconclusive: -42.9%
28 | Oc1c(Br)cc(C2N=C(c3ccccc3)NO2)cc1Br (centres undefined) | active: -65.1%
29 | CN(C)/C=C(\C#N)C(=O)N/N=C/c1ccccc1 | active: -68.6%
30 | C/C(=N\NC(=O)c1nn(C)c(C)c1Br)c1ccc(NC(=O)c2ccccc2F)cc1 | active: -68.5%
31 | O=C(CCCOc1ccccc1)N1CCN(c2ccccn2)CC1 | inconclusive: -60.1%
32 | COc1ccc(CCn2c(=N)c(C(=O)NC3CCCC3)cc3c(=O)n4cccc(C)c4nc32)cc1 | inconclusive: -57.8%
33 | CC(C)(C)C(=O)OCc1cn(-c2ccc(Cl)cc2)nn1 | inconclusive: -56.8%
34 | C/C(CC(C)C)=N\NS(=O)(=O)c1ccc(C)c([N+](=O)[O-])c1 | inactive: 50.7%
35 | CC(=O)c1cccc(NC(=O)Nc2cccs2)c1 | inconclusive: -58.6%
36 | O=C1CCC2S/C(=C/Nc3ccc(C(F)(F)F)cc3)C(=O)N12 (centres undefined) | inactive: 99.4%
37 | Cn1c(=O)c2c(SCC(=O)Nc3ccccc3F)nc(-c3ccccc3F)nc2n(C)c1=O | inconclusive: -39.1%
38 | Cc1ccc(C2NC(=O)NC(O)(C(F)(F)F)C2C(=O)c2cccs2)o1 (centres undefined) | inconclusive: -48%
39 | Cc1nc2cc(NC(=O)Nc3cccc([N+](=O)[O-])c3)ccc2n1C | inconclusive: -59.8%
40 | FC(F)Oc1ccc(-c2csc(=Nc3cccnc3)n2CC2CCCO2)cc1 (centres undefined) | inconclusive: -42.8%
41 | Cc1ccc(C(=O)Nc2nnc(SCC(=O)N3CCCc4ccccc43)s2)cc1 | inactive: 74.5%
42 | CC(C)(C)c1ccc(C(=O)NC(=S)NNC(=O)COc2ccccc2)cc1 | inconclusive: -52.2%
43 | COc1ccccc1-c1nnc2n1N=C(c1ccc(O)c(O)c1)CS2 | inactive: 97%
44 | COCCCNC(=O)c1ccccc1C(F)(F)F | inconclusive: -39.2%
45 | CSc1nnc(-c2cc(-c3ccc(C)cc3)nc3ccccc23)o1 | inactive: 57%
46 | O=C(Nc1ccc(-c2nnc(-c3ccccc3)o2)cc1)C(F)(F)F | inconclusive: -53.6%
47 | O=C1CCCc2nn(-c3ccccc3)nc21 | inconclusive: -56.7%
48 | COCC(=O)Nc1ccc(-c2cn3cccnc3n2)cc1 | inconclusive: -54.7%

Row | Compound | activity score
49 | Cc1ccc(N=Cc2sccc2C)cc1C | active: -111%
50 | COc1ccccc1N1CCN(/N=C/c2ccc(Cl)c([N+](=O)[O-])c2)CC1 | active: -128%
51 | CCOC(=O)Cc1csc(NC(=O)Nc2ccc(C)cc2)n1 | inconclusive: -59.7%
52 | COc1cc(/C=C/C(=O)NC(C)(C)C)ccc1OCc1ccccc1 | inactive: 59.4%
53 | CCc1ccc(Nc2nnc(SCC(=O)Nc3cccnc3Cl)s2)cc1 | active: -64.4%
54 | CC(C)(C)C1CCc2onc(C(=O)Nc3cccc(O)c3)c2C1 (centres undefined) | active: -92.3%
55 | Nc1c(C(=O)N2CCOCC2)sc2nc3c(cc12)CCCC3 | inactive: 75.7%
56 | Cc1ccc(NC(=O)N(C2=NCC(C)S2)c2ccccc2)cc1 (centres undefined) | inconclusive: -52%
57 | CCOC(=O)C(C)Oc1cccc2c(=O)n(CC(=O)NCc3ccco3)ccc12 (centres undefined) | inactive: 73%
58 | CSCc1ccc(C(=O)NCc2ccccc2)cc1 | inconclusive: -51.2%
59 | CCOc1ccc(-c2cc(C(=O)NCCCn3ccnc3)c3ccccc3n2)cc1 | inconclusive: -58.2%
60 | O=C(O)CN1C(=O)/C(=C\c2ccccc2OCc2ccc(Cl)cc2Cl)SC1=S | inconclusive: -58.1%
61 | COc1ccc(C(NC(C)=O)c2cc(Cl)c3cccnc3c2O)cc1 (centres undefined) | inactive: 75.9%
62 | O=C(Oc1c(CN2CCOCC2)cc(Cl)c2cccnc12)c1ccccc1Cl | inactive: 105%
63 | Cc1cccn2c(=O)c3cc(C(=O)NCc4ccco4)c(=N)n(C4CCCC4)c3nc12 | inconclusive: -55.6%
64 | CCOC(=O)c1sc(NC(=O)C2=COCCO2)c(C#N)c1C | inconclusive: -57.9%
65 | C=CCN(CC=C)Cc1cc(=O)n2c(-c3ccccc3)csc2n1 | inconclusive: -44.8%
66 | O=C(Nc1cccc(F)c1)c1sc(Cl)nc1-c1ccccc1 | inconclusive: -59.2%
67 | COc1cccc(/C=N/Nc2cc(N3CCOCC3)ncn2)c1O | inactive: 72.2%
68 | CC(=O)Nc1ccc(Nc2nc(C)c([N+](=O)[O-])c(N(C)c3ccccc3)n2)cc1 | inactive: 85.6%
69 | Cc1ccc(NC(=S)NC(=O)c2ccccc2)cc1NC(=S)NC(=O)c1ccccc1 | inconclusive: -57.3%
70 | CCOC(=O)c1csc(NC(=O)c2cccs2)n1 | active: -109%
71 | CN1C(=O)C(O)(c2nnc(-c3ccccc3)o2)c2ccccc21 (centres undefined) | active: -96%
72 | Cc1ccsc1C(=O)N/N=C/c1ccc2c(c1)OCO2 | active: -98.9%

Row | Compound | activity score
73 | OCCN1CCN(CCCN2c3ccccc3Sc3ccc(Cl)cc32)CC1 | inconclusive: -56.6%
74 | O=C(NCc1ccco1)c1cc2ccc(O)cc2oc1=O | inconclusive: -58%
75 | Cc1[nH]n(C(N)=S)c(=O)c1N=Nc1ccc2ccccc2c1 | active: -147%
76 | OCc1nc2ccccc2n1CCCOc1ccccc1 | inconclusive: -51%
77 | Cc1cc(C)cc(NC(=O)Cn2c(-c3ccccc3Cl)nc3ccccc32)c1 | inconclusive: -48.7%
78 | COc1ccc(C)cc1N=Nc1ccc(O)c2ncccc12 | inactive: 67.6%
79 | Cc1ccc(OCc2nnc(N)s2)cc1C | active: -62.3%
80 | CC(C)c1ccc(/C=C2\NC(=S)N(Cc3cccnc3)C2=O)cc1 | inconclusive: -45.9%
81 | Cc1ccc(-c2nn(-c3ccccc3)cc2/C=N/NC(=O)c2ccc3c(c2)OCO3)cc1 | inconclusive: -57.4%
82 | CCOc1cc2[nH]c(=S)n(Cc3ccc(C(=O)N4CCN(C)CC4)cc3)c(=O)c2cc1OCC | inactive: 86.1%
83 | CC1CC(C)(C)N(C(=O)NC2CCCCC2)c2ccccc21 (centres undefined) | inconclusive: -47.5%
84 | CCc1ccc(S(=O)(=O)/N=C2\C=C(Nc3ccc(O)cc3)C(=O)c3ccccc32)cc1 | inactive: 101%
85 | O=C(c1cc2ccccc2[nH]1)N1CCOCC1 | inconclusive: -44.7%
86 | OC(CNc1ncnc2sccc12)c1ccccc1 (centres undefined) | active: -97%
87 | Cc1cc(N2CCC(C)CC2)nc2cccc(O)c12 | inconclusive: -55%
88 | O=C(NNC1=Nc2ccccc2SC1)c1ccc(Cl)cc1 | inactive: 96.2%
89 | CCN(CC)c1ccc2c(c1)OC(N)=C(C#N)C2c1cccnc1 (centres undefined) | inactive: 75.3%
90 | COc1ccccc1NC(=O)CSc1nccc(=O)[nH]1 | inconclusive: -52.6%
91 | CC(NC(=O)c1ccccc1Cl)C1COc2ccccc2O1 (centres undefined) | inconclusive: -51.4%
92 | CCOC(=O)CN1C(=O)S/C(=C/c2ccc3c(c2)n(C)c(=O)n3C)C1=O | active: -155%
93 | Cc1cc(/C=C(\C#N)C(=O)OCC(=O)NC(=O)NC(C)(C)C)c(C)n1CCC(C)C | inconclusive: -61.5%
94 | Cc1cccc(CC(C)NC(=O)c2cc(COc3ccc(C)c(C)c3)on2)n1 (centres undefined) | inconclusive: -52%
